Experimental data as given in PubChem BioAssay AID1508624 (National Center for Advancing Translational Sciences (NCATS), 2021).
Out of some 48,000 compounds screened, about 120 (0.25%) were called active. Inconclusive results (about 4%) are left out. The call rests on the fitted dose curve; in most records, active means well fitted activation curve with a large enough effect; inconclusive means small, poorly fitted or top-dose-only effect, or another doubt; inactive means no such curve, though single readings can be large or run the other way. This is one part of the list.

Experiment: Primary qHTS for Identification of Small Molecule Activators of Huntingtin-Antisense Promoter Activity; further: nearly all actives have a fitted effect of over 55% in size
Conditions: HEK293 HTT-AS promoter firefly luciferase reporter (activity 0% = vehicle and -100% = no light), 24 h; series mostly up to 57.5 µM; activity change, positive = activation: at the top concentration
How it was run: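 HEK293 Fluc reporter, 2,500 cells/well, 24 h pre-culture; cpds up to 57.5 uM final, 24 h 37 degrees C; Dual-Glo, 10 min RT; normalized vehicle = 0%, zero RLU = -100%.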

Row | SMILES | activity change, positive = activation
1 | COc1ccc(CNC(=O)c2ccc3c(c2)N(Cc2ccccc2F)C(=O)c2ccccc2S3=O)cc1 (stereo not given) | inactive: -15.7%
2 | CC(=O)Nc1nonc1-c1nnc(SCc2ccccc2C)n1C | inactive: -16.8%
3 | COc1ccc(OC)c(NC(=O)Cc2c(C(=O)O)[nH]c3ccc(Cl)cc23)c1 | inactive: -10%
4 | CCc1ccccc1NC(=O)Cc1ccc(-n2c(C)nc3cccnc32)cc1 | inactive: -15.8%
5 | COc1cccc(-c2ccc3c(N)c(C(=O)Nc4ccc(Cl)cc4F)sc3n2)c1 | inactive: -20.5%
6 | Cc1ccc(C2=Nc3ccccc3N(CC(=O)NCc3ccc(Cl)cc3)C(=O)C2)cc1C | inactive: 11.3%
7 | O=C(c1ccc(Cl)cc1)N1CCCCC1CCN1CCOCC1 (stereo not given) | inactive: -15%
8 | Cc1ccc(C)c(N2CCN(C(=O)c3cc4c(=O)n(Cc5cccnc5)ccc4nc3C)CC2)c1 | inactive: -11.6%
9 | Cc1cccc(CSc2nc3cccnc3n2Cc2ccc(C(=O)NCc3cccs3)cc2)c1 | inactive: -26.1%
10 | Cc1cc(C)n(-c2nc3cc(Cl)c(Cl)cc3nc2Nc2ccc(F)cc2C)n1 | inactive: 9.33%
11 | Cc1cccc(C(=O)Nc2c(-c3ccc(F)cc3)nc3ccccn23)c1 | inactive: -19.5%
12 | CCn1c(=O)c2cc(C(=O)Nc3cc(C)c(Cl)cc3OC)sc2c2ccccc21 | inactive: -5.02%
13 | Cc1ccc(NC(=O)c2cc3c(Cl)nc4ccc(C)cc4c3s2)c(Cl)c1 | inactive: -8.43%
14 | COc1ccc(NC(=O)CSc2nc3ccccc3n2CC(=O)N2CCCC(C)C2)cc1 (stereo not given) | inactive: 4.93%
15 | O=C(CCCn1c(=O)c2cccn2c2ccc(F)cc21)NCCc1ccccc1 | inactive: -11.6%
16 | Cc1ccc(Cl)cc1NC(=O)Nc1c(C)n(C)n(-c2ccccc2)c1=O | inactive: -6.15%
17 | CCOC(=O)CSc1nc2ccc(NC(=O)c3ccc(F)cc3)cc2s1 | inactive: -4.95%
18 | COc1ccc(NC(=O)Cn2cc(S(=O)(=O)c3ccc(C)cc3)c(=O)c3ccccc32)cc1OC | inactive: -0.924%
19 | CCOc1ccccc1Nc1nc(-c2cccc(Cl)c2)c2c(n1)-c1ccccc1OC2 | inactive: -3.29%
20 | Cc1ccc(CSCC(=O)NCc2ccc(F)cc2)cc1 | inactive: -6%
21 | COc1ccc(-c2noc(-c3ccc(NCc4ccco4)c([N+](=O)[O-])c3)n2)cc1 | inactive: -4.4%
22 | CCOC(=O)c1cccc(NC(=O)CCc2c(C)nc3cc(-c4ccc(Cl)cc4)nn3c2C)c1 | inactive: -79.4%
23 | CCc1nnc(SCC(=O)N(C)c2ccccc2)c2cc3sccc3n12 | inactive: -27%
24 | COc1ccc(-c2ccc(CNc3ccc4[nH]c(=O)[nH]c4c3)o2)cc1Cl | inactive: -30.9%

Row | SMILES | activity change, positive = activation
25 | Cn1cnnc1SCC(=O)Nc1cc(C(=O)O)cc(C(=O)O)c1 | inactive: 6.95%
26 | CCc1ccc(Oc2nc3c(C)cccn3c(=O)c2/C=C(\C#N)c2nc3ccccc3[nH]2)cc1 | inactive: -7.13%
27 | COc1cc(-c2noc(CSc3nc(-c4ccccc4)cc(=O)[nH]3)n2)cc(OC)c1OC | inactive: -8.46%
28 | Cc1cccc(C(=O)NCC(c2ccc3c(c2)OCO3)N2CCN(c3ccccc3F)CC2)c1 (stereo not given) | inactive: -27%
29 | Cc1ccc(-n2nc(C)c3c(C)cc(=O)n(CC(=O)Nc4ccc(Br)cc4F)c32)cc1 | inactive: 0.324%
30 | COc1ccc(S(=O)(=O)c2c(Nc3ccc(C)cc3)sc(C(=O)c3ccc(C)cc3)c2N)cc1 | inactive: -22.7%
31 | Cc1cc(=O)n2[nH]c(NCc3ccc(F)cc3)nc2n1 | inactive: 1.68%
32 | CCOc1ccccc1CNC(=O)C1CCN(C2=NS(=O)(=O)C(c3ccc(C)c(C)c3)=C2C)CC1 | inactive: -16.7%
33 | COc1ccc(NC(=O)c2ccc3c(=O)n4nc(Nc5cc(C)ccc5C)sc4nc3c2)cc1 | inactive: -54.1%
34 | CCCN(C(=O)c1nn(-c2ccc(OC)c(Cl)c2)c(=O)c2c1c1ccccc1n2C)c1ccccc1F | inactive: -11.8%
35 | COc1ccc(OC)c(NC(=O)Cn2cnc3sc(C)c(S(=O)(=O)N4CCN(c5ccccc5OC)CC4)c3c2=O)c1 | inactive: 10.4%
36 | COc1ccc(C(=O)N2CCC(c3nc4ccccc4o3)CC2)cc1 | inactive: -33%
37 | CCOc1ccc(C(=O)NCCc2csc(-c3ccc(C(F)(F)F)cc3)n2)cc1OCC | inactive: -18.8%
38 | c1ccc(Cc2nnc(SCc3nc(-c4cccs4)no3)n2-c2ccccc2)cc1 | inactive: -36.2%
39 | Cc1ccccc1N1CCN(S(=O)(=O)c2nnc(NC(=O)c3ccccc3)s2)CC1 | inactive: -36.9%
40 | COc1ccc(S(=O)(=O)c2c(Nc3ccc(F)cc3)sc(C(=O)c3ccc(C)cc3C)c2N)cc1 | inactive: -26.5%
41 | Cc1onc(-c2c(Cl)cccc2Cl)c1C(=O)Cl | inactive: -5.04%
42 | COc1cccc(NC(=O)c2sc3nc(C)c(C(=O)Nc4ccc(C)cc4C)c(-c4sccc4C)c3c2N)c1 | inactive: 4.02%
43 | CS(=O)(=O)CCNCc1ccc(-c2ccc3ncnc(Nc4ccc(OCc5cccc(F)c5)c(Cl)c4)c3c2)o1 | inactive
44 | O=c1c2oc3ccccc3c2n(Cc2cccc(F)c2)c(=O)n1Cc1ccco1 | inactive: -18%
45 | CC(C)c1ccc2oc(-c3cc(NC(=O)c4cccs4)ccc3Cl)nc2c1 | inactive: -19.2%
46 | CC1=C(C(=O)Nc2cccnc2)C(c2cccc(O)c2)n2nc(SCc3ccccc3)nc2N1 (stereo not given) | inactive: 8.25%
47 | CCCn1c(=O)n(-c2cc(Cl)c(OC)cc2OC)c(=O)c2c3c(sc21)CN(C(C)=O)CC3 | inactive: -15.5%
48 | Cc1ccc([C@H]2Nc3ccc(S(=O)(=O)Nc4cccc(Cl)c4C)cc3[C@H]3C=CC[C@H]32)cc1 | inactive: -13.8%

Row | SMILES | activity change, positive = activation
49 | CCn1cc(CCC(=O)NCc2ccc(F)cc2)c2ccccc21 | inactive: -0.109%
50 | COc1ccc(CCNC(=O)CSc2ncc3c(n2)-c2cc(Cl)ccc2N(Cc2ccccc2)S3(=O)=O)cc1OC | inactive: -16.9%
51 | Cc1ccc(CNC(=O)c2nc(SCc3ccc(C)cc3)ncc2Cl)cc1 | inactive: -15.5%
52 | CCc1ccccc1NC(=O)Cn1c(=O)c2cccn2c2ccc(F)cc21 | inactive: -8.59%
53 | CC(C)c1ccc(NC(=O)CSC2=Nc3ccccc3C3=NC(CC(=O)NCc4ccc(F)cc4)C(=O)N23)cc1 (stereo not given) | inactive: -37%
54 | COc1ccc(CNC(=O)c2ccc3c(c2)N(Cc2cccc(Cl)c2)C(=O)c2ccccc2S3)c(OC)c1 | inactive: -13.8%
55 | COCCCNC(=O)CCn1c(=O)c2ccccc2n(CC(=O)Nc2c(C)cc(C)cc2C)c1=O | inactive: -5.96%
56 | Cc1ccc(-n2c(=O)c3cccnc3n2CC(=O)Nc2cccc(C)c2C)cc1 | inactive: -13.5%
57 | Cc1ccc(Cl)cc1N1CCN(C(=O)C2CCCN(S(=O)(=O)c3ccc(Br)s3)C2)CC1 (stereo not given) | inactive: -23.2%
58 | COc1ccccc1NC(=O)CCn1cnc2ccccc2c1=O | inactive: -7.63%
59 | Cc1ccc2nc(-c3ccc(Cl)c(NC(=O)c4cccnc4)c3)oc2c1 | inactive: 7.3%
60 | CCOc1ccc(NC(=O)CSc2nccn2-c2cccc(C)c2C)cc1 | inactive: -29.4%
61 | Oc1ccc(Cl)c2cccnc12 | inactive: -11.5%
62 | CC(=O)N1CCCc2cc(S(=O)(=O)N3CCCCC3)ccc21 | inactive: -9.98%
63 | CCOc1ccccc1CNC(=O)c1cc2c(=O)n(Cc3ccccc3)ccc2nc1C | inactive: -35.8%
64 | CN(C(=O)c1cc2c(=O)oc3ccccc3c2s1)c1ccc(F)cc1 | inactive: -9.74%
65 | CCCCn1c2ccc(F)cc2c2nnc(SCCN3CCCCC3)nc21 | inactive: -6.27%
66 | O=S(=O)(NCC(c1ccco1)S(=O)(=O)c1cccs1)c1ccc(F)c(C(F)(F)F)c1 (stereo not given) | inactive: -37.6%
67 | Cc1ccc(OCC(=O)NCC(=O)OCc2cc(=O)n3nc(C)sc3n2)cc1 | inactive: -4.85%
68 | CCOC(=O)C1CCN(S(=O)(=O)c2cc(-c3onc(C)c3C)ccc2OC)CC1 | inactive: -26.3%
69 | COc1ccc(OC)c(CNC(=O)C2CCN(S(=O)(=O)c3cn(C)cn3)CC2)c1 | inactive: -1.93%
70 | COc1cc(Cl)c(C)cc1NC(=O)c1cc(CN2CCOCC2)on1 | inactive: 11.2%
71 | CCc1ccc(NC(=O)CCS(=O)(=O)c2ccc3c(c2)CCN3C(C)=O)cc1 | inactive: -17%
72 | CCc1ccccc1NC(=O)Nc1cc(C(=O)NCc2ccc(C(C)C)cc2)ccc1N1CCCC1 | inactive: -6.3%

Row | SMILES | activity change, positive = activation
73 | Cc1cc(NC(=O)c2ccc3c(c2)N(Cc2cccc(Cl)c2)C(=O)c2ccccc2S3=O)ccc1Br (stereo not given) | inactive: -9.63%
74 | Cc1ccc(S(=O)(=O)c2cn(Cc3ccccc3F)c3cc4c(cc3c2=O)OCO4)cc1 | inactive: 5.43%
75 | CC1CCCN(Cc2c(O)ccc3c(=O)c(Oc4ccccc4Cl)c(C(F)(F)F)oc23)C1 (stereo not given) | inactive: -13.1%
76 | CO[C@@H]1[C@@H](O)[C@H](O)[C@@H](n2c3c(Cl)cccc3c3c4c(c5c6cccc(Cl)c6[nH]c5c32)C(=O)NC4=O)O[C@@H]1CO | inactive: -36%
77 | CCC1CN(S(=O)(=O)c2cc(-c3cc(C)no3)ccc2OC)c2cc(C)ccc2O1 (stereo not given) | inactive: -25.5%
78 | CCC(=O)c1ccc(O)cc1 | inactive: -1.15%
79 | CCOc1ccc(C(=O)Nc2nnc(SCc3cc(=O)c4cc(C)ccc4[nH]3)s2)cc1 | inactive: 3.36%
80 | COc1cccc2sc(N(Cc3cccnc3)C(=O)COc3ccccc3)nc12 | inactive: -26.2%
81 | Cc1nn(-c2ccccc2)c(OC(=O)c2ccccc2F)c1S(=O)(=O)c1ccccc1 | inactive: -18.1%
82 | Cc1ccc(C)c(NC(=O)CSc2nc(=O)n(CCN(C)C)c3c2CCC3)c1 | inactive: -1.08%
83 | COc1cc(CN(C(=O)c2ccccc2[N+](=O)[O-])c2ccccn2)cc(OC)c1OC | inactive: -9.01%
84 | Cc1sc2c(c1C)c(=O)n(CCc1ccccc1)c(=O)n2Cc1ccccc1Cl | inactive: 9.63%
85 | CCn1c(=O)c2cc(C(=O)N3CCN(c4cccc(Cl)c4)CC3)sc2c2ccccc21 | inactive: -34.2%
86 | CC1CCN(S(=O)(=O)c2ccc3c(c2)N(CC(=O)NCCCN2CCCCC2C)C(=O)CS3)CC1 (stereo not given) | inactive: 1.04%
87 | N#Cc1ccccc1NC(=O)c1cc2c(=O)n3ccccc3nc2s1 | inactive: -16%
88 | COc1ccc(CCNC(=O)C2=C(C)C(=O)OC23CCCCC3)c(OC)c1OC | inactive: -7.69%
89 | CCN(CC)S(=O)(=O)c1ccc2c(c1)nc(CN(C)C(=O)c1cccc(Cl)c1)n2C | inactive: -14.9%
90 | CCCCN(CCCC)C(C(N)=O)c1ccc(OC)cc1 (stereo not given) | inactive: -1.35%
91 | CCOC(=O)c1c(NC(=O)c2ccccc2C)sc2c1CCCC2 | inactive: -17.4%
92 | O=C(CN1C(=O)COc2ccc(S(=O)(=O)N3CCCC3)cc21)NCCc1ccc(Cl)cc1 | inactive: -16.9%
93 | CCOc1ccc2nc(N3CCN(C(=O)C(C)C)CC3)sc2c1 | inactive: 15.9%
94 | O=c1[nH]c2ccc(NS(=O)(=O)c3ccc(F)cc3)cc2s1 | inactive: -10.4%
95 | COc1ccc2oc(=O)cc(CN3CCN(C(=O)c4ccccc4Br)CC3)c2c1 | inactive: -21.4%
